This passage reports binding signal results from article PMC12820563, “FoxP3 forms a head-to-head dimer in vivo and stabilizes its multimerization on adjacent microsatellites”.

This is one part of the list.

The target of this assay is T1, MBP-FoxP1dN (Mus musculus, UniProt P58462 326-579).
T1 sequence: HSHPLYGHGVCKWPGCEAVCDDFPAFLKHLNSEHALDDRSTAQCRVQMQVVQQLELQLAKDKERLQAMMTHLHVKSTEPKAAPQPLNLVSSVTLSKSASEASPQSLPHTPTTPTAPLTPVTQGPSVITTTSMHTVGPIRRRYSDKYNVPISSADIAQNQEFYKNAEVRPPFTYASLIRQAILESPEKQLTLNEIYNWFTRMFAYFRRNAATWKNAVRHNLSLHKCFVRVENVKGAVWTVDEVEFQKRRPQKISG
Description: PD-seq (MBP pull-down with sequencing); 20 mM Tris-HCl pH 7.5, 100 mM NaCl, 1.5 mM MgCl2, 0.4 uM protein, 0.1 uM dsDNA library, 30 min, room temperature, amylose pull-down; high values mean tight binding. To be noted: protein: recombinant; tags: His6-MBP; chain copies: 2; dsDNA, one strand shown. The method in brief: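 His6-MBP-tagged mouse FoxP3 or FoxP1 fragment lacking the N-terminus, expressed in E. coli, was mixed at 0.4 µM with 0.1 µM Klenow-filled double-stranded degenerate DNA library. Incubation was 30 min at room temperature in Tris pH 7.5 buffer with NaCl and MgCl2. Complexes were caught on amylose resin and washed three times; DNA was released with proteinase K, PCR-barcoded and Illumina-sequenced. Binding is reads-per-million enrichment, pull-down over input, with replicates pooled.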
Take “GATGATTGTTCTCCCAGCTGATGAATTGAAAAGATCGAGTAAACAAATTTTCCTAATCTTTCTGTTCAAGCGCCATCTAC”: the binding signal was 0.856 RPM ratio (pull-down/input).
Under “GATGATTGTTCTCCCAGCTGATGAATTCGGCCACTCGAGTAAACAAATTTTCCTAATCTTTCTGTTCAAGCGCCATCTAC” stands 0.831 RPM ratio (pull-down/input).
With “GATGATTGTTCTCCCAGCTGATGAATTTCTCTCGTCGAGTAAACAAATTTTCCTAATCTTTCTGTTCAAGCGCCATCTAC”, the binding signal is 0.904 RPM ratio (pull-down/input).
Regarding “GATGATTGTTCTCCCAGCTGATGAATTCGGAACATCGAGTAAACAAATTTTCCTAATCTTTCTGTTCAAGCGCCATCTAC”, the binding signal was 0.931 RPM ratio (pull-down/input).
On to “GATGATTGTTCTCCCAGCTGATGAATTTGACCGCTCGAGTAAACAAATTTTCCTAATCTTTCTGTTCAAGCGCCATCTAC”, for which the binding signal is 0.8 RPM ratio (pull-down/input).
Under “GATGATTGTTCTCCCAGCTGATGAATTGCGCACGTCGAGTAAACAAATTTTCCTAATCTTTCTGTTCAAGCGCCATCTAC” stands 1.13 RPM ratio (pull-down/input).
As to “GATGATTGTTCTCCCAGCTGATGAATTAGGAGCTTCGAGTAAACAAATTTTCCTAATCTTTCTGTTCAAGCGCCATCTAC”, the binding signal was 0.802 RPM ratio (pull-down/input).
For “GATGATTGTTCTCCCAGCTGATGAATTCGCTCGATCGAGTAAACAAATTTTCCTAATCTTTCTGTTCAAGCGCCATCTAC”, the binding signal is 0.875 RPM ratio (pull-down/input).
The figure for “GATGATTGTTCTCCCAGCTGATGAATTGGGTGGTTCGAGTAAACAAATTTTCCTAATCTTTCTGTTCAAGCGCCATCTAC” is 0.853 RPM ratio (pull-down/input); for “GATGATTGTTCTCCCAGCTGATGAATTACCATTTTCGAGTAAACAAATTTTCCTAATCTTTCTGTTCAAGCGCCATCTAC” it is 1.18 RPM ratio (pull-down/input); for “GATGATTGTTCTCCCAGCTGATGAATTCTTTCTATCGAGTAAACAAATTTTCCTAATCTTTCTGTTCAAGCGCCATCTAC” it is 0.838 RPM ratio (pull-down/input).
The figure for “GATGATTGTTCTCCCAGCTGATGAATTTTCCTATTCGAGTAAACAAATTTTCCTAATCTTTCTGTTCAAGCGCCATCTAC” is 0.987 RPM ratio (pull-down/input); for “GATGATTGTTCTCCCAGCTGATGAATTGCGCGTGTCGAGTAAACAAATTTTCCTAATCTTTCTGTTCAAGCGCCATCTAC” it is 1.09 RPM ratio (pull-down/input); for “GATGATTGTTCTCCCAGCTGATGAATTGATGCTCTCGAGTAAACAAATTTTCCTAATCTTTCTGTTCAAGCGCCATCTAC” it is 1.18 RPM ratio (pull-down/input).
Under “GATGATTGTTCTCCCAGCTGATGAATTGACGTGTTCGAGTAAACAAATTTTCCTAATCTTTCTGTTCAAGCGCCATCTAC” stands 1.21 RPM ratio (pull-down/input); under “GATGATTGTTCTCCCAGCTGATGAATTGCATGGGTCGAGTAAACAAATTTTCCTAATCTTTCTGTTCAAGCGCCATCTAC”, 1 RPM ratio (pull-down/input).
On to “GATGATTGTTCTCCCAGCTGATGAATTGGTAATTTCGAGTAAACAAATTTTCCTAATCTTTCTGTTCAAGCGCCATCTAC”, for which the binding signal was 1.15 RPM ratio (pull-down/input).
Under “GATGATTGTTCTCCCAGCTGATGAATTCTTGTCATCGAGTAAACAAATTTTCCTAATCTTTCTGTTCAAGCGCCATCTAC” stands 1.3 RPM ratio (pull-down/input); under “GATGATTGTTCTCCCAGCTGATGAATTGTTACGCTCGAGTAAACAAATTTTCCTAATCTTTCTGTTCAAGCGCCATCTAC”, 1.18 RPM ratio (pull-down/input); under “GATGATTGTTCTCCCAGCTGATGAATTAATTCGCTCGAGTAAACAAATTTTCCTAATCTTTCTGTTCAAGCGCCATCTAC”, 0.935 RPM ratio (pull-down/input).
The figure for “GATGATTGTTCTCCCAGCTGATGAATTATATCTCTCGAGTAAACAAATTTTCCTAATCTTTCTGTTCAAGCGCCATCTAC” is 0.907 RPM ratio (pull-down/input); for “GATGATTGTTCTCCCAGCTGATGAATTACGGTCTTCGAGTAAACAAATTTTCCTAATCTTTCTGTTCAAGCGCCATCTAC” it is 1 RPM ratio (pull-down/input).
Under “GATGATTGTTCTCCCAGCTGATGAATTTAATCCGTCGAGTAAACAAATTTTCCTAATCTTTCTGTTCAAGCGCCATCTAC” stands 0.931 RPM ratio (pull-down/input).
For “GATGATTGTTCTCCCAGCTGATGAATTTATGGTATCGAGTAAACAAATTTTCCTAATCTTTCTGTTCAAGCGCCATCTAC”, the binding signal is 1.22 RPM ratio (pull-down/input).
The figure for “GATGATTGTTCTCCCAGCTGATGAATTGATGCGATCGAGTAAACAAATTTTCCTAATCTTTCTGTTCAAGCGCCATCTAC” is 1.48 RPM ratio (pull-down/input).
On to “GATGATTGTTCTCCCAGCTGATGAATTGCTTACATCGAGTAAACAAATTTTCCTAATCTTTCTGTTCAAGCGCCATCTAC”, for which the binding signal is 1.59 RPM ratio (pull-down/input).
As to “GATGATTGTTCTCCCAGCTGATGAATTCAGTATATCGAGTAAACAAATTTTCCTAATCTTTCTGTTCAAGCGCCATCTAC”, the binding signal was 1.05 RPM ratio (pull-down/input).
On to “GATGATTGTTCTCCCAGCTGATGAATTGAGGAACTCGAGTAAACAAATTTTCCTAATCTTTCTGTTCAAGCGCCATCTAC”, for which the binding signal was 0.766 RPM ratio (pull-down/input).
Under “GATGATTGTTCTCCCAGCTGATGAATTTAGGGTCTCGAGTAAACAAATTTTCCTAATCTTTCTGTTCAAGCGCCATCTAC” stands 0.927 RPM ratio (pull-down/input).
The figure for “GATGATTGTTCTCCCAGCTGATGAATTAAAAACTTCGAGTAAACAAATTTTCCTAATCTTTCTGTTCAAGCGCCATCTAC” is 1.01 RPM ratio (pull-down/input).
Under “GATGATTGTTCTCCCAGCTGATGAATTACCCGTCTCGAGTAAACAAATTTTCCTAATCTTTCTGTTCAAGCGCCATCTAC” stands 0.808 RPM ratio (pull-down/input).
